# Assay results from the supplement of paper PMC8728848.
# This excerpt belongs to a sample that is enriched for the strongest signals.
# Legend:
# Experiment in all cases: glycan array binding signal (z-score within array); higher = stronger binding
# Conditions in all cases: glycan notation: IUPAC condensed, linker removed
# [1] = tested on: Man(a1-2)Man(a1-2)Man(a1-3)Man
# Method in brief: (§1)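 Columns mapping to the same glycan were averaged after glycan names were converted to IUPAC-condensed notation. The data come from 3228 arrays in the Consortium for Functional Glycomics database, limited to those with an available protein sequence. Binding is reported as a within-array Z-score averaged across arrays of one protein sequence and across linkers.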
# [2] = tested on: Man(a1-2)Man(a1-2)Man(a1-6)[Man(a1-3)]Man
# Method in brief: as §1
# [3] = tested on: Man(a1-2)Man(a1-3)[Man(a1-2)Man(a1-6)]Man
# Method in brief: as §1
# [4] = tested on: Man(a1-2)Man(a1-6)[Man(a1-3)]Man(a1-6)[Man(a1-2)Man(a1-2)Man(a1-3)]Man
# Method in brief: as §1
# [5] = tested on: Man(a1-2)Man(a1-2)Man(a1-3)[Man(a1-2)Man(a1-3)[Man(a1-2)Man(a1-6)]Man(a1-6)]Man(b1-4)GlcNAc(b1-4)GlcNAc
# Method in brief: as §1
# [6] = tested on: Man(a1-3)[Man(a1-6)]Man(a1-6)[Man(a1-2)Man(a1-3)]Man(b1-4)GlcNAc(b1-4)GlcNAc
# Method in brief: as §1
# [7] = tested on: Man(a1-3)[Man(a1-6)]Man(a1-6)[Man(a1-3)]Man
# Method in brief: as §1
# [8] = tested on: Man(a1-2)Man(a1-2)Man(a1-3)[Man(a1-2)Man(a1-6)[Man(a1-3)]Man(a1-6)]Man(b1-4)GlcNAc(b1-4)GlcNAc
# Method in brief: as §1
# Kdn(a2-3)Gal(b1-3)GlcNAc = tested on: Kdn(a2-3)Gal(b1-3)GlcNAc
# Method in brief: as §1
# Kdn(a2-3)Gal(b1-4)GlcNAc = tested on: Kdn(a2-3)Gal(b1-4)GlcNAc
# Method in brief: as §1
# [9] = tested on: Kdn(a2-3)Gal(b1-4)[Fuc(a1-3)]GlcNAc
# Method in brief: as §1
# [10] = tested on: Man(a1-2)Man(a1-3)[Man(a1-2)Man(a1-6)]Man(a1-6)[Man(a1-2)Man(a1-2)Man(a1-3)]Man(b1-4)GlcNAc(b1-4)GlcNAc
# Method in brief: as §1
# [11] = tested on: Man(a1-2)Man(a1-6)[Man(a1-3)]Man(a1-6)[Man(a1-2)Man(a1-2)Man(a1-3)]Man(b1-4)GlcNAc(b1-4)GlcNAc
# Method in brief: as §1
# [12] = tested on: Man(a1-3)[Man(a1-6)]Man(a1-6)[Man(a1-3)]Man(b1-4)GlcNAc(b1-4)GlcNAc
# Method in brief: as §1
# [13] = tested on: Man(a1-2)Man(a1-3)[Man(a1-2)Man(a1-6)]Man(a1-6)[Man(a1-2)Man(a1-2)Man(a1-3)]Man
# Method in brief: as §1
# Kdn(a2-3)Gal(b1-4)Glc = tested on: Kdn(a2-3)Gal(b1-4)Glc
# Method in brief: as §1
# Man(a1-2)Man(a1-3)Man = tested on: Man(a1-2)Man(a1-3)Man
# Method in brief: as §1
# [14] = tested on: Man(a1-2)Man(a1-3)[Man(a1-3)[Man(a1-6)]Man(a1-6)]Man(b1-4)GlcNAc(b1-4)GlcNAc
# Method in brief: as §1
# [15] = tested on: Man(a1-2)Man(a1-3)[Man(a1-6)]Man(a1-6)[Man(a1-2)Man(a1-3)]Man(b1-4)GlcNAc(b1-4)GlcNAc
# Method in brief: as §1
# Kdn(a2-3)Gal(b1-3)GalNAc = tested on: Kdn(a2-3)Gal(b1-3)GalNAc
# Method in brief: as §1
substance,measurement,setting,value
VWF (Homo sapiens) (chain not printed),glycan array binding signal (z-score),[1],-0.255
same,glycan array binding signal (z-score),[2],-0.144
Galectin-8 C-terminal CRD (Homo sapiens) (chain not printed),glycan array binding signal (z-score),[2],-0.347
same,glycan array binding signal (z-score),[3],-0.294
NCAM1 (Homo sapiens) (chain not printed),glycan array binding signal (z-score),[4],0.08
H-Ficolin (Homo sapiens) (chain not printed),glycan array binding signal (z-score),[5],-0.753
same,glycan array binding signal (z-score),[2],2.25
Gal 8 long (Homo sapiens) (chain not printed),glycan array binding signal (z-score),[6],4.24
same,glycan array binding signal (z-score),[7],-0.185
Serum Amyloid P component (Homo sapiens) (chain not printed),glycan array binding signal (z-score),[8],-0.603
same,glycan array binding signal (z-score),[3],-0.47
Gal 8-short (Homo sapiens) (chain not printed),glycan array binding signal (z-score),Kdn(a2-3)Gal(b1-3)GlcNAc,1.72
M-Ficolin Y271F (Homo sapiens) (chain not printed),glycan array binding signal (z-score),Kdn(a2-3)Gal(b1-3)GlcNAc,0.162
same,glycan array binding signal (z-score),Kdn(a2-3)Gal(b1-4)GlcNAc,-0.257
same,glycan array binding signal (z-score),[9],-0.221
same,glycan array binding signal (z-score),[1],-0.608
same,glycan array binding signal (z-score),[4],-0.425
MBP (Homo sapiens) (chain not printed),glycan array binding signal (z-score),[2],3.51
same,glycan array binding signal (z-score),[10],0.451
FGF2 (chain not printed),glycan array binding signal (z-score),[9],1.07
same,glycan array binding signal (z-score),[6],-0.267
Meso764 (Homo sapiens) (chain not printed),glycan array binding signal (z-score),[11],-0.696
same,glycan array binding signal (z-score),[12],0.261
L-Ficolin (Homo sapiens) (chain not printed),glycan array binding signal (z-score),[2],-0.539
same,glycan array binding signal (z-score),[10],-0.486
STIM-3 (Mus musculus) (chain not printed),glycan array binding signal (z-score),Kdn(a2-3)Gal(b1-3)GlcNAc,-1.02
same,glycan array binding signal (z-score),[1],3.14
same,glycan array binding signal (z-score),[2],2.57
Collectin K1 (Homo sapiens) (chain not printed),glycan array binding signal (z-score),[1],1.65
same,glycan array binding signal (z-score),[2],1.94
same,glycan array binding signal (z-score),[13],13.8
same,glycan array binding signal (z-score),[3],2.62
same,glycan array binding signal (z-score),[11],1.88
Siglec-2 (Homo sapiens) (chain not printed),glycan array binding signal (z-score),[6],2.45
M-Ficolin (Homo sapiens) (chain not printed),glycan array binding signal (z-score),Kdn(a2-3)Gal(b1-4)Glc,-0.232
same,glycan array binding signal (z-score),[1],-0.287
same,glycan array binding signal (z-score),[11],-0.155
M-Ficolin G221F A256V (Homo sapiens) (chain not printed),glycan array binding signal (z-score),[1],-0.361
same,glycan array binding signal (z-score),Man(a1-2)Man(a1-3)Man,-0.276
same,glycan array binding signal (z-score),[3],-0.312
Angiogenin (Homo sapiens) (chain not printed),glycan array binding signal (z-score),[14],-1.32
same,glycan array binding signal (z-score),[15],1.82
M-Ficolin A256V (Homo sapiens) (chain not printed),glycan array binding signal (z-score),[2],-0.166
same,glycan array binding signal (z-score),[12],-0.144
Gal 3 (Homo sapiens) (chain not printed),glycan array binding signal (z-score),Kdn(a2-3)Gal(b1-3)GalNAc,0.034
